For 90 variants, self-cleavage results are on record in the RNAGym collection of RNA variant scans (doi:10.7554/elife.90254).

Read counts are not given, so values of variants with three or more changes are uncertain.

B1: LINE1-full (parent)
chain: UACGUAGGUGGUUUUCCCCUGAUAGUGCUAAGGGGGCCUGGAAGUUUGGACUGGGCAGAGCUCAACACAGCGUGGCAAAGUGGCUGUGGCUAGACUGCCUCUCUGGAUUCCUCGUCACUCAGCAGGGCAUCUCUGAGAGAAAUGCC

In this data set the parent is B1. The data set can be described thus: self-cleavage, relative activity (ratio to wild type); higher = more cleavage; in vitro, sequencing; the parent is a self-cleaving ribozyme.
As to A124G C128U U143C, the self-cleavage was 0.05.

For A136U A142G G144A, the self-cleavage was 1.64. Turning to U115C A129U A141G, the self-cleavage is 1.97. As for U115C U130C U143C, the self-cleavage amounted to 1.53. C123G G127C U132C A138G: the self-cleavage is 1.23.

Consider C128U A141G U143A, for which the self-cleavage worked out at 1.5.

U112C U115C U134A: the self-cleavage was 0.81.

For A129U A140C A141G, the self-cleavage came to 1.46.

As to A117U A129G A136G A142G, the self-cleavage worked out at 1.41. Take A138G A140G A142G: the self-cleavage stood at 0.2. Regarding U112A U115C U132A G135U, the self-cleavage was determined as 1.34. As for U130A A136G A138G A141G, the self-cleavage is 0.

C118U U119C A141G: the self-cleavage was found to be 2.08. Consider U112C U130C U143A, for which the self-cleavage is 0. For U109C G114A G137A, the self-cleavage amounted to 0.71. On to U112C U143C C145U, for which the self-cleavage was found to be 1.22. Take U112A U115C U134C: the self-cleavage amounted to 1.98.

As for U119A A121G U132A, the self-cleavage turned out to be 2.04. Consider A117G A141G A142G, for which the self-cleavage came out at 0. For C116U U134A A140G A142G the value was 0.28. On to U109C U115A A142G, for which the self-cleavage came out at 0. In the case of C113U A117G U143C it was 0.71; in that of U112C U132C A140G, 0.92. In the case of U115C U134A U143A, the self-cleavage came out at 1.02. In the case of C110A U115C A140G it was 1.05; in that of C111A U130C U132C, 1.44. G127A A129U U130A: the self-cleavage turned out to be 1.47. For U109C U132C A136U, the self-cleavage amounted to 1.58.

With U119A A129C A141G, the self-cleavage is 1.46. In the case of C120A U132C G139U it was 1.58; in that of A124G G127A A140G, 0.55; in that of G114A A124G A129G A136G, 1.54. On to C111U U119C A141G, for which the self-cleavage was 1.9. In the case of U115C A117G A141G, the self-cleavage stood at 1.62. In the case of U130C A136U A138U, the self-cleavage turned out to be 1.19. Regarding U119A A140G U143C, the self-cleavage was determined as 0.88. A124G A136G A142G: the self-cleavage stood at 1.07.

Take U134A A136G A141C: the self-cleavage is 2.63.

U119A U132C A140G: the self-cleavage was found to be 2.15. As to A124U A136U G144A, the self-cleavage was 1.38. On to U112C A121G A136G, for which the self-cleavage is 1.7. Take U115C A124G A138G: the self-cleavage came to 2.57. As to A129G C131U C146U, the self-cleavage was 2.35. A124G U132C A136U: the self-cleavage stood at 2.16. Turning to U115C A136G A141G, the self-cleavage stood at 0.92. Consider U112C A138G A142C, for which the self-cleavage worked out at 0.77. Turning to A129G A140U U143A, the self-cleavage was 0.22. In the case of U115C G126U A129G it was 2.37; in that of A124U A129G A142G, 1.84; in that of A121G A124C U143A, 1.06. As to A124G U132C U134C, the self-cleavage was determined as 1.1. In the case of C128U G137A A141U, the self-cleavage is 1.66. Take U119A A124U G135U: the self-cleavage turned out to be 1.37.

Take C120U A124G U143C: the self-cleavage stood at 1.29.

Turning to A124U U130A U132A, the self-cleavage came out at 1.99.

On to U132C U134A U143A, for which the self-cleavage stood at 0.47. For A136G A140G G144A, the self-cleavage turned out to be 1.48.

Turning to C118A U132A A141G, the self-cleavage worked out at 1.43. For C113U A140U A141G U143A, the self-cleavage amounted to 0.66. In the case of A121G U132A A142G it was 0.46; in that of U115A A124C U132A, 1.81; in that of U112C A117G A140G, 0. Consider A117U U119A U130A, for which the self-cleavage was found to be 1.15. Regarding U109C U115G U134C, the self-cleavage was 0.77. For the variant U115C U134C A136G, the self-cleavage turned out to be 2.53. As to A121G U143C G144A, the self-cleavage came to 1.33. U109C A138U A141G A142G: the self-cleavage came to 1.78. Regarding A121G C133U A138G U143C, the self-cleavage came out at 2.53. Turning to C110U A129U U130A, the self-cleavage was 1.49.

For the variant C116A A129G A140U, the self-cleavage is 0.44. Regarding A129G U130C U134A, the self-cleavage is 2.7. On to U112A A124U C146A, for which the self-cleavage was determined as 1.48. In the case of A124G A129G U132C it was 1.1.

Consider U112C A136G A140U, for which the self-cleavage stood at 2.27. In the case of U119A A124G C131G it was 1.08; in that of A124U U134A A142G, 1.13. For the variant U115A A124G A129G, the self-cleavage came to 1.36. For U112A U130G A136G, the self-cleavage was found to be 0.57. As for C120A A121G G125U, the self-cleavage is 1.54.

With U132A A140G U143C, the self-cleavage was determined as 1.37. For the variant C113U A117C A140G A142G, the self-cleavage was found to be 1.78.

Consider U112C A129U A140G, for which the self-cleavage was 0.97.

In the case of U119A A136G A141G, the self-cleavage is 1.87. With G126A A136G A138G, the self-cleavage was 1.54. As to U112C U119C A140U A141G C145A, the self-cleavage came to 1.52. On to U112C A124U A142G, for which the self-cleavage was 1.83. In the case of A124G U130C U132C it was 2.12; in that of C113U U132C U143G, 1.36. Regarding A117G U119C A142G, the self-cleavage worked out at 1.84.

Take A117G U119A G126A A142G: the self-cleavage was 0.69.
